{"source": "PubChem BioAssay AID686978", "about": "(National Center for Advancing Translational Sciences (NCATS), 2013)", "note": "In all, about 420,000 compounds went through this assay and about 64,000 (15%) were called active. The inconclusive results got no clear call from the source; some entries with a clear call stand among them for comparison. Calls follow the shape of the dose curve; as a rule, active = well fitted inhibition curve with a large enough effect; inconclusive = small, poorly fitted or top-dose-only effect; inactive = flat fitted curve, though single readings scatter. Potencies of inconclusive entries are left out as doubtful fits."}
{"assay": "qHTS for Inhibitors of human tyrosyl-DNA phosphodiesterase 1 (TDP1): qHTS in cells in absence of CPT; also: nearly all actives have a fitted effect of over 55% in size; also: potency is read from the fitted curve at half-maximal effect; tags tell the direction and shape of the fitted curve; as to activity change, negative = growth inhibition: % is scaled to controls: 0 for no effect and ±100 for the full control effect", "details": "DT40 Tdp1-/- hTDP1 cells, no CPT, ATP luminescence, 48 h; activity change, negative = growth inhibition: at 46.2 µM (top of the series)", "method_in_brief": "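Chicken DT40 Tdp1-/- cells stably complemented with human TDP1 were seeded at 400 cells/well with DMSO in place of 20 nM camptothecin. After compound pinning, cells grew at least 48 hr at 37 °C; viability read by CellTiter-Glo luminescence.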"}
{"compound": "Cc1ccc(Cl)cc1NC(=O)[C@@H]1CCC(=O)N1C1OC(=O)c2ccccc21", "note": "(stereo partly specified)", "Potency": "inactive"}
{"compound": "COc1ccc(/C=N\\NC(=O)c2ccccc2F)cc1COc1ccc(F)cc1", "Potency": "inconclusive [inhibitor, full curve, poor fit]"}
{"compound": "CCCOc1ccc(N2CC(C(=O)NC(C)C)CC2=O)cc1", "note": "(stereo unspecified)", "Potency": "inactive"}
{"compound": "COc1ccc(OCc2nc(N)nc(Nc3ccccc3)n2)cc1", "activity change, negative = growth inhibition": "inconclusive: -35.2% [inhibitor]"}
{"compound": "CC(C)CNC(=O)CCc1c[nH]c2ccccc12", "Potency": "inactive"}
{"compound": "CCC(C)c1ccc(C(CC)NC(=O)C2CCCO2)cc1", "note": "(stereo unspecified)", "Potency": "inconclusive [inhibitor, single point]"}
{"compound": "CSc1cccc(NC(=S)N(Cc2ccccc2)Cc2cccnc2)c1", "activity change, negative = growth inhibition": "inconclusive: -30.8% [inhibitor]"}
{"compound": "COc1ccccc1N(C)c1cc2c(c3c1ccn3C)C1CCC2O1", "note": "(stereo unspecified)", "Potency": "inconclusive [inhibitor, single point]"}
{"compound": "COc1ccccc1/C=N/NC(=O)C(=O)N1CCN(c2ccccc2OC)CC1", "Potency": "inactive"}
{"compound": "CCc1cc(C(=O)N2CCN(S(=O)(=O)c3ccc(Cl)cc3)CC2)sc1C", "Potency": "inconclusive [inhibitor, partial curve]"}
{"compound": "COc1cccc(NC(=O)Nc2nnc(Cc3ccccc3)s2)c1", "Potency": "inconclusive [inhibitor, single point]"}
{"compound": "COc1ccc(/C=N/NC(=O)c2ccc3c(c2)NC(=O)C(C)(C)O3)cc1OC", "Potency": "inconclusive [inhibitor, single point]"}
{"compound": "CC(NC(=O)C1CC1)c1nnc2n1CCN(Cc1cccc(F)c1F)CC2", "note": "(stereo unspecified)", "Potency": "inactive"}
{"compound": "COC(=O)CC1Oc2ccccc2-n2cc(-c3ccc(C)cc3)nc21", "note": "(stereo unspecified)", "Potency": "active: 3.26 µM"}
{"compound": "C/C(Cl)=C\\Cn1c(O)c(N=NC(N)=S)c2cc(Br)ccc21", "Potency": "active: 1.64 µM"}
{"compound": "O=C1c2ccccc2C(Nc2ccc(F)c(Cl)c2)N1c1ccccn1", "note": "(stereo unspecified)", "Potency": "inconclusive [inhibitor, single point]"}
{"compound": "CCn1c(SCCOc2ccc(Cl)cc2)nnc1-c1cccs1", "Potency": "inconclusive [inhibitor, single point]"}
{"compound": "CC(C(=O)Nc1ccccc1)N(C)CCOc1ccc(Br)cc1", "note": "(stereo unspecified)", "Potency": "inactive"}
{"compound": "Nc1c(C(=O)NCc2ccc(Cl)cc2Cl)nnn1Cc1ccc(Br)cc1", "Potency": "inconclusive [inhibitor, single point]"}
{"compound": "Cc1ccc2nc(NS(C)(=O)=O)sc2c1", "Potency": "inactive"}
{"compound": "C[C@H](CO)N1C[C@H](C)[C@@H](CN(C)Cc2ccncc2)Oc2ccc(NC(=O)Cn3cnnn3)cc2C1=O", "Potency": "inconclusive [inhibitor, partial curve, poor fit]"}
{"compound": "CC(=O)Nc1ccccc1-c1nc(CNC(=O)c2ccc(C)cc2)c(C)o1", "activity change, negative = growth inhibition": "inconclusive: -33.2% [inhibitor]"}
{"compound": "c1ccc(-c2nnc(OCCN3CCOCC3)c3ccccc23)cc1", "Potency": "inconclusive [inhibitor, partial curve, poor fit]"}
{"compound": "CCCCCCn1c(=O)n2n(c1=O)C[C@]1(OC(=O)NCc3ccccc3)CN(S(=O)(=O)c3ccc(C)cc3)C[C@]1(O)C2", "Potency": "active: 14.6 µM"}
{"compound": "CCCN(C(=O)c1cccc(S(=O)(=O)N2CCCc3ccccc32)c1)C1CCS(=O)(=O)C1", "note": "(stereo unspecified)", "Potency": "inconclusive [inhibitor, single point]"}
{"compound": "CN1CC(c2ccccc2)C(c2ccc(Cl)cc2)=N1", "note": "(stereo unspecified)", "Potency": "inconclusive [inhibitor, partial curve]"}
{"compound": "CC(C)CCNC(=O)NC(=O)COC(=O)c1cc(S(=O)(=O)N2CCOCC2)ccc1N1CCCCC1", "Potency": "inconclusive [inhibitor, partial curve]"}
{"compound": "Cc1cccc(N=Nc2c(C)nn(-c3ccccc3)c2N)c1C", "Potency": "inconclusive [inhibitor, single point]"}
{"compound": "COc1ccc(OCC(=O)Nc2cc(-c3ccccc3F)nn2-c2ccccc2)cc1", "Potency": "inactive"}
{"compound": "Cc1ccc(NC(=O)CSc2nc3ccccc3c3nc4ccccc4n23)cc1", "Potency": "active: 0.58 µM"}
{"compound": "COc1ccccc1NC(=O)COC(=O)c1c(C)nn(-c2ccccc2)c1C", "Potency": "active: 18.4 µM"}
{"compound": "O=C1CC(NNc2ccccc2)C(=O)N1c1ccc(N2CCCCC2)cc1", "note": "(stereo unspecified)", "Potency": "inconclusive [inhibitor, single point]"}
{"compound": "Cc1cc(C)n(-c2nc(SCC(=O)O)c3c4c(sc3n2)COC(C)(C)C4)n1", "Potency": "inconclusive [inhibitor, single point]"}
{"compound": "CC1CCCCN1C(=O)c1ccccc1OC1CCN(S(C)(=O)=O)CC1", "note": "(stereo unspecified)", "Potency": "inactive"}
{"compound": "CCC1CN(C(=O)N2CCC(C(=O)NCCc3ccccc3Cl)CC2)c2cc(C)ccc2O1", "note": "(stereo unspecified)", "Potency": "active: 20.6 µM"}
{"compound": "COc1cc(NC(=S)NCCCN(C)C)c(OC)cc1NC(=O)c1ccco1", "Potency": "inactive"}
{"compound": "CC(=O)c1cc2c(cc1F)C(C)(C)CCC2(C)C", "Potency": "inactive"}
{"compound": "Cc1ccc(NC(=O)CN2C(=O)/C(=C\\c3cccs3)SC2=S)cc1", "Potency": "inconclusive [inhibitor, single point]"}
{"compound": "Cc1ccccc1C(=O)NC1CCN(CC(=O)Nc2ccc(Br)cc2)CC1", "Potency": "inconclusive [inhibitor, partial curve]"}
{"compound": "Cc1ccccc1CNc1ccc(C(CC(N)=O)NC(=O)c2ccccc2)cc1[N+](=O)[O-]", "note": "(stereo unspecified)", "Potency": "active: 23.1 µM"}
{"compound": "CCOc1c(C)cc(-c2ncccc2O)cc1C", "Potency": "inactive"}
{"compound": "Cc1ccc(Nc2nnc(-c3ccc(C)c(S(=O)(=O)N4CCN(C)CC4)c3)c3ccccc23)cc1", "Potency": "active: 16.4 µM"}
{"compound": "FC(F)c1nc2nc(Cl)c(Cl)nc2[nH]1", "Potency": "inconclusive [inhibitor, single point]"}
{"compound": "O=C(NNc1ccccc1F)c1sccc1Cl", "Potency": "inconclusive [inhibitor, single point]"}
{"compound": "CC1CCN(S(=O)(=O)c2ccc(C(=O)N3CCN(c4ccccc4F)CC3)cc2)CC1", "Potency": "inconclusive [inhibitor, partial curve]"}
{"compound": "CCOC(=O)C1(CCOc2ccccc2)CCN(Cc2ccc(OC)c(O)c2)CC1", "Potency": "inconclusive [inhibitor, partial curve]"}
{"compound": "Cn1nc(C(=O)OCc2ccc(F)cc2)c2ccccc2c1=O", "Potency": "inconclusive [inhibitor, single point]"}
{"compound": "CCC[C@@]1(CCc2ccccc2)CC(O)=C([C@H](CC)c2cccc(NS(=O)(=O)c3ccc(C(F)(F)F)cn3)c2)C(=O)O1", "Potency": "inconclusive [inhibitor, single point]"}
{"compound": "OC(CN=c1sc2ccccc2n1CC(O)COc1ccccc1)COc1ccccc1", "note": "(stereo unspecified)", "Potency": "inconclusive [inhibitor, single point]"}
{"compound": "O=[N+]([O-])c1cc(S(=O)(=O)NCCN2CCOCC2)ccc1Cl", "Potency": "inactive"}
{"compound": "CCOCCCn1c(SCC(=O)OCC)nc2c(sc3ccccc32)c1=O", "Potency": "inconclusive [inhibitor, single point]"}
{"compound": "O=C(Nc1ccn(Cc2ccc(F)cc2)n1)c1ccncc1", "Potency": "active: 11.6 µM"}
{"compound": "CN(CC(=O)Nc1cccc(F)c1)C(=O)CSc1ccccc1", "Potency": "inconclusive [inhibitor, single point]"}
{"compound": "CCCCOP(=O)(OCCCC)C(O)c1ccc(N(C)C)cc1", "note": "(stereo unspecified)", "Potency": "inconclusive [inhibitor, partial curve, poor fit]"}
{"compound": "CCOC(=O)C1CCN(C(=O)CSc2ccccc2)CC1", "Potency": "inactive"}
{"compound": "COc1ccc2c(=O)cc(-c3ccccc3)oc2c1O", "Potency": "inconclusive [inhibitor, partial curve]"}
{"compound": "S=c1[nH]nc(-c2ccco2)n1/N=C/c1cccc(Cl)c1Cl", "activity change, negative = growth inhibition": "inconclusive: -30.8% [inhibitor]"}
{"compound": "COc1ccc(N2CCN(C(=O)C(=O)c3c(C)[nH]c4ccccc34)CC2)cc1", "Potency": "inconclusive [inhibitor, single point]"}
{"compound": "Cc1ccc(C(=O)CSc2nc(-c3ccccc3)nc3c2CCCC3)c(C)c1", "Potency": "inconclusive [inhibitor, single point]"}
{"compound": "CCCCC(=O)NNC(=S)NC(=O)CCC", "Potency": "inconclusive [inhibitor, single point]"}
{"compound": "CC1(C)CNC(=O)CC(C)(C)N1O", "Potency": "inactive"}
{"compound": "COc1ccc(N=C(C)C2=C(O)c3ccccc3C2=O)cc1", "Potency": "inconclusive [inhibitor, single point]"}
{"compound": "O=C(NCCN1CCOCC1)c1cc(Sc2cccc(Cl)c2)nc2ccccc12", "Potency": "inconclusive [inhibitor, partial curve, poor fit]"}
{"compound": "COc1ccc(S(=O)(=O)N(C)C)cc1NCC(=O)Nc1ccc(F)cc1F", "Potency": "inconclusive [inhibitor, single point]"}
{"compound": "CC(NC(=O)c1c(N)[nH]c(C(=O)c2ccccc2)c1-c1ccccc1Br)c1cccc2ccccc12", "note": "(stereo unspecified)", "Potency": "inconclusive [inhibitor, single point]"}
{"compound": "Cc1ccc(-c2csc(NC(=O)C3CC(=O)N(c4ccc5c(c4)OCCO5)C3)n2)o1", "note": "(stereo unspecified)", "Potency": "inconclusive [inhibitor, single point]"}
{"compound": "Cc1cc(Oc2ccccc2)nc(SCC(N)=O)n1", "Potency": "inactive"}
{"compound": "CNC(=O)C1CCC(Cn2c(=O)c3sccc3n(CC(=O)Nc3ccc(C)c(C)c3)c2=O)CC1", "note": "(stereo unspecified)", "Potency": "active: 9.2 µM"}
{"compound": "CC(C(=O)Nc1ccc(O)c(C(=O)O)c1)N1C(=O)/C(=C/c2cccs2)SC1=S", "note": "(stereo unspecified)", "Potency": "inconclusive [inhibitor, single point]"}
{"compound": "CCCCn1cc(S(=O)(=O)c2ccc(OC)cc2)c(=O)c2cc(CC)ccc21", "Potency": "inconclusive [inhibitor, single point]"}
{"compound": "C=CCN1C(=O)c2ccc(C(=O)N(C)CC(=O)Nc3cccc(F)c3)cc2C1=O", "Potency": "inactive"}
